Laboratory results reported in PubChem BioAssay AID488969 (Vanderbilt High Throughput Screening Facility, 2010).
In all, about 110,000 compounds were measured (“z-score”: median about -0.1, highest 2% from about 2 on). Some of the results follow. Activity calls are given as the source filed them.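 Rule for the calls: active = z-score in the third read window above 3 or below -3; inactive = the rest.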

Molecular target: Metabotropic glutamate receptor 8 (Rattus norvegicus) (UniProt P70579)
Assay: mGluR8 Gi/Go-coupled signaling modulation – cell-based, rat, thallium flux, HTS, primary screen (AID 488969)
Details: HEK293 rat mGluR8, GIRK (G protein-gated inwardly rectifying potassium channel) thallium flux, FluoZin2; at 10 µM; stronger effect = higher value; submaximal glutamate (EC20) added with thallium

Sequence of UniProt P70579 (P70579 whole entry, looked up): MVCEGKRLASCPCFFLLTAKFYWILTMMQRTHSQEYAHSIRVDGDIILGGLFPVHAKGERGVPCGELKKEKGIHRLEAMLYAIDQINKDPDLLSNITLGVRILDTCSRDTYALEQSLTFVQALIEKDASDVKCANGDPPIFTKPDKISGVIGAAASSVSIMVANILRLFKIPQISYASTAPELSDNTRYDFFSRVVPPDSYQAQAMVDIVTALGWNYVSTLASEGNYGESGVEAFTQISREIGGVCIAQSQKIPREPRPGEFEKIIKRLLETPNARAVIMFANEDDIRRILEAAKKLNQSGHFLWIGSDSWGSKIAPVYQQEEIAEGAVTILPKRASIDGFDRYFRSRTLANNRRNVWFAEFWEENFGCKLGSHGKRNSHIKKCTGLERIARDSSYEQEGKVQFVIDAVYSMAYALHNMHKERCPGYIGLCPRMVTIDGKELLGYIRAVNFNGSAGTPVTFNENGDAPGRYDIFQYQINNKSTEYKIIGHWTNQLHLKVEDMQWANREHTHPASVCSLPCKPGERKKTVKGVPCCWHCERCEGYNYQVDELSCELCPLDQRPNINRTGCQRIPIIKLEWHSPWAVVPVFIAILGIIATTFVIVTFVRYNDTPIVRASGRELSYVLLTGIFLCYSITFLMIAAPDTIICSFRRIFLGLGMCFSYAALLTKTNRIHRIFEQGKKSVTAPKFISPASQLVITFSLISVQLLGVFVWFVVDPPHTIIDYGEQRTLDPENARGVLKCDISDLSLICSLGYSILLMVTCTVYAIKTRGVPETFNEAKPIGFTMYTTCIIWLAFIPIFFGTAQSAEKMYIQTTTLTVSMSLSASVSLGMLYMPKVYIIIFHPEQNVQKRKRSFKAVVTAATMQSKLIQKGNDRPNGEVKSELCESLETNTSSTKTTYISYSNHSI

Compared with `COc1ccc(/C=N/Nc2nc(NCc3ccco3)nc(Nc3ccc(OC)cc3)n2)cc1`, `C=CCNc1nc(Cl)nc(Nc2ccc(OCC)cc2)n1` is higher in z-score: -0.217 for the first, 0.127 for the second.

Compared with `COc1cccc(CNc2nc3nc(C)cc(=O)n3[nH]2)c1`, `CSc1nc2nc(-c3ccccc3)cc(=O)n2[nH]1` is lower in z-score: -0.0013 for the first, -0.443 for the second.

Compared with `COc1ccccc1NC(=O)c1ccc(Cl)c(S(=O)(=O)N2CCOCC2)c1`, `O=C(Nc1cccnc1Cl)c1ccc(S(=O)(=O)N2CCCCCC2)cc1` is higher in z-score: -0.465 for the first, -0.00431 for the second.

Going from `Cc1cccc(CSc2nnc(N)n2-c2ccccc2)c1` to `Cc1ccc(NC(=O)c2cc(C)nn2-c2ccccc2)cc1`, the z-score falls from -0.0797 to -0.22.

Going from `COc1ccc(NC(=O)c2c(NC(=O)CNCc3ccco3)sc3c2CCC3)cc1` to `COc1ccc(CNC(=O)c2cccc(N3CCCC3=O)c2)cc1`, the z-score rises from -0.387 to -0.0471.

Compared with `CCOC(=O)c1[nH]c(C)c(C(=O)OCC)c1C`, `CCN(C(=O)COC(=O)c1c(NC(C)=O)sc(C)c1C)C1CCS(=O)(=O)C1` (centres undefined) is lower in z-score: -0.0907 for the first, -1.8 for the second.

Compared with `CCOC(=O)c1ccccc1NC(=O)N[C@@H](C)C(=O)OC`, `CCOC(=O)c1c2c(n(C)c1COC)C(=O)C(=O)c1ccc(Br)cc1-2` is lower in z-score: 0.0579 for the first, -0.214 for the second.

Compared with `CCCCOC(=O)Nc1nnc(SCCOc2ccc(C)cc2)s1`, `Cc1ccc(Nc2nnc(SCC(=O)NCCN3C(=O)CSC3=O)s2)cc1` is higher in z-score: -0.177 for the first, 0.881 for the second.

Going from `Cn1c(=O)c2c(nc(-n3ccnc3)n2Cc2ccc(Cl)cc2Cl)n(C)c1=O` to `Cc1cccc(NC(=O)Cn2c(=O)n3nc(CCn4nc(C)cc4C)nc3c3ccccc32)c1`, the z-score rises from -0.162 to -0.0936.

First: CCSc1c(-c2ccccc2)nc2c(C)cccc2c1C(=O)O
Second: COCc1cc(Sc2cccc(Cl)c2Cl)nc(-c2ccccc2)n1
The z-score of the first is lower: -1.09 for the first, -0.293 for the second.

First: Cc1cc(OCc2ccc(C(=O)n3cccn3)o2)ccc1Cl
Second: COc1ccc(CNC(=O)CSCc2cccc(Cl)c2)cc1
The z-score of the first is lower: -0.284 for the first, -0.235 for the second.

Compared with `CCCOc1ccc(Cl)cc1CN1CCOCC1`, `FC(F)(F)c1cc(-c2cccs2)nc(N2CCOCC2)n1` is higher in z-score: -0.0364 for the first, 0.297 for the second.

First: COc1ccccc1NS(=O)(=O)c1cccc(NC(=O)Nc2ccccc2)c1
Second: O=S(=O)(Nc1ccc(-c2csc(-c3ccccc3)n2)cc1)c1ccc(F)cc1
The z-score of the first is lower: -0.086 for the first, 0.17 for the second.

Going from `COC(=O)C1=CNC=C(C(=O)OC)C1c1cccc(OC)c1` to `COc1cccc(N2C(=O)CC(NNC(=O)c3cccs3)C2=O)c1` (centres undefined), the z-score rises from -0.422 to 0.0345.

First: COc1cc(/C=N/N2C(=O)CSC2=S)ccc1O
Second: O=[N+]([O-])c1ccc(O)c(/C=N/n2cnnc2)c1
The z-score of the first is higher: 0.218 for the first, 0.0326 for the second.

Going from `COc1ccccc1NC(=O)N(Cc1ccco1)Cc1cc2cc(C)cc(C)c2[nH]c1=O` to `CC(=O)c1cccc(NC2c3ncccc3C(=O)N2Cc2ccco2)c1` (centres undefined), the z-score rises from -0.691 to 0.0428.

Compared with `O=C(Nc1c(C(=O)N2CCOCC2)cnn1-c1ccccc1Cl)c1ccco1`, `Cc1c(C(=O)N2CCN(c3ccccn3)CC2)sc2ncnc(N3CCOCC3)c12` is higher in z-score: -0.159 for the first, 0.116 for the second.

Compared with `CC(=O)Nc1cc(C(F)(F)F)ccc1OCC1CCCO1` (centres undefined), `CCOc1cc(C(=O)Nc2cc(C)ccc2OC)ccc1OCC(=O)N1CCCCC1` is lower in z-score: 0.0261 for the first, -0.313 for the second.

Going from `Cn1nnnc1SCC(=O)N1CCN(c2ccc(Cl)cc2)CC1` to `O=C(Cn1nnc(-c2ccccc2)n1)N1CCN(S(=O)(=O)c2ccc(Cl)cc2)CC1`, the z-score falls from 0.736 to -1.25.

Compared with `Cn1c(SCCOc2ccccc2Cl)nnc1-c1cccs1`, `Cn1nnnc1SCC(=O)NC(=O)NCc1ccccc1` is higher in z-score: -0.314 for the first, 0.279 for the second.

Compared with `O=C(NC(=S)N(Cc1ccccc1)Cc1ccccc1)C1CCCCC1`, `O=C(N/N=C\c1cn(-c2ccccc2)nc1-c1ccccc1)c1ccc2c(c1)OCO2` is lower in z-score: 0.526 for the first, 0.000201 for the second.

First: Cc1[nH]c(=O)c(C(=O)/C=C/c2ccccc2)c2c1CCCC2
Second: CC(C)Cc1nc(N2CCC(C(N)=O)CC2)c2nnn(Cc3ccccc3)c2n1
The z-score of the first is higher: 0.984 for the first, 0.128 for the second.

Compared with `CC1CC(C)CN(C(=O)C(NS(=O)(=O)c2ccc3c(c2)oc(=O)n3C)C(C)C)C1` (centres undefined), `Cc1ccc(NC(=O)CCn2c(=O)oc3ccccc32)cc1` is higher in z-score: 0.0168 for the first, 0.149 for the second.

Going from `Cc1ccc(N(C(C)C(=O)O)S(=O)(=O)c2c(C)n[nH]c2C)cc1` (centres undefined) to `Cc1ccc(C(C)n2cc(C(=O)NCCN3CCN(C)CC3)nn2)cc1` (centres undefined), the z-score falls from 0.525 to -0.0667.

Going from `CCOc1cccc(/C(O)=C2/C(=O)C(=O)N(Cc3cccnc3)C2c2ccco2)c1` (centres undefined) to `CCOC(=O)N1CCC(n2c(SCC(=O)NCc3ccco3)nc3ccsc3c2=O)CC1`, the z-score falls from -0.0208 to -0.557.

First: C/C(=C(\C#N)C(=O)NCCCN1CCOCC1)N(C)C
Second: COc1ccc(NC(=O)/C(=C/c2ccc3c(c2)OCO3)NC(C)=O)cc1
The z-score of the first is higher: 0.592 for the first, -0.031 for the second.

`O=C1C2CCCN2C(c2ccccc2F)N1c1ccc(Cl)cc1` (centres undefined) gave a z-score of -0.173.

With `C=CCOc1cccc(C2/C(=C(/O)c3ccc(C)cc3)C(=O)C(=O)N2CCN2CCOCC2)c1` (centres undefined) the z-score was active: 3.31.
